This passage reports cell count results from the supplement of paper PMC4604168 (melanoma cell lines).

Some of the results follow. Single values are uncertain, as repeats are few or missing.
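Also: cell number obtained by counting DAPI-stained nuclei in high-throughput microscope images with image analysis software, screen run in 1,536-well plates.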

For the assay, the system named is MeWo. Put plainly: cell count relative to DMSO control; melanoma cells; higher = more viable cells. As to conditions: library dose: low library concentration; 72 h.
The molecule `Clc1ccc(Nc2nnc(Cc3ccncc3)c3ccccc23)cc1` [vatalanib] + O=C(Nc1ccccc1)c1cc([N+](=O)[O-])ccc1Cl [GW9662] (first compound 2 µM, partner dose 2 µM) gave a cell count of 88.1%.

Consider `Cn1c(Nc2ccc(C(F)(F)F)cc2)nc2cc(Oc3ccnc(-c4ncc(C(F)(F)F)[nH]4)c3)ccc21` + C=CCn1c(=O)c2cnc(Nc3ccc(N4CCN(C)CC4)cc3)nc2n1-c1cccc(C(C)(C)O)n1 [MK1775] (first compound 0.08 µM, partner dose 0.02 µM), for which the cell count was determined as 58.1%.

With `OCc1c[nH]c2ccccc12` [Indole-3-carbinol] + CN(C)S(=O)(=O)c1ccc2c(c1)/C(=C/c1cc3c([nH]1)CCCC3)C(=O)N2 [SU6656] (first compound 0.8 µM, partner dose 0.4 µM), the cell count came out at 95.9%.

Consider `COCC[n+]1c2c(n(Cc3cnccn3)c1C)C(=O)c1ccccc1C2=O` + NC(=O)Nc1cc(-c2cccc(F)c2)sc1C(=O)N[C@H]1CCCNC1 [AZD7762] (first compound 0.0004 µM, partner dose 0.02 µM), for which the cell count was 91.2%.

As for `Nc1cccc2c1CN(C1CCC(=O)NC1=O)C2=O` (stereo unspecified) [lenalidomide] + O=C(O)c1ccc(-c2c[nH]c3ncc(-c4ccccc4)cc23)cc1C1CCCC1 [GSK650394] (first compound 1 µM, partner dose 0.16 µM), the cell count worked out at 87.6%.

Turning to `COCC[n+]1c2c(n(Cc3cnccn3)c1C)C(=O)c1ccccc1C2=O` + Cn1cncc1[C@@](N)(c1ccc(Cl)cc1)c1ccc2c(c1)c(-c1cccc(Cl)c1)cc(=O)n2C [tipifarnib] (first compound 0.0004 µM, partner dose 0.01 µM), the cell count was determined as 86.4%.
